Some of the results follow.
The compounds below were run on S. aureus RN4220 (assay: growth inhibition call (relative growth <= 0.2)). Details: 50 µM.

Growth inhibition call, inactive:
COc1ccc2c3c(n(c2c1)C)[C@H](CO)N(C[C@]13CCN(CC1)Cc1cccc(c1)F)C(=O)Nc1ccc(cc1)F
COc1ccccc1-c1ccc2c(c1)O[C@H](CN(C)CC1CCOCC1)[C@@H](C)CN([C@H](C)CO)S2(=O)=O
C[C@@H]1CN([C@H](C)CO)C(=O)c2cc(NC(=O)c3ccncc3)ccc2O[C@@H](C)CCCCO[C@H]1CN(C)Cc1ccc(C(F)(F)F)cc1
O=C(C[C@H]1CC[C@H](NC(=O)CN2CCOCC2)[C@@H](CO)O1)NC1CCC1
COc1ccc([C@@H]2C/C=C\C[C@@H](c3cccc(Cl)c3)NC(=O)[C@@H](c3ccccc3)CC(=O)N2)c(OC)c1
C[C@@H]1CN([C@H](C)CO)C(=O)c2cc(NC(=O)Nc3ccc(C(F)(F)F)cc3)ccc2O[C@@H]1CN(C)CC1CCCCC1
COc1ccc(CN(C)C[C@@H]2OCCCC[C@H](C)Oc3ccc(NC(=O)NC4CCCCC4)cc3C(=O)N([C@H](C)CO)C[C@H]2C)cc1
COc1ccc2c3c([nH]c2c1)[C@H](CO)N(C[C@]13CN(C1)S(=O)(=O)c1ccccc1)C(=O)c1cnccn1
C[C@H]1CN([C@@H](C)CO)C(=O)c2cccc(NC(=O)CCCCCC(=O)Nc3ccccc3N)c2O[C@@H]1CN(C)CC1CCCCC1
C[C@@H]1CN([C@H](C)CO)C(=O)Cc2cc(NC(=O)Nc3ccc(C(F)(F)F)cc3)ccc2O[C@H]1CN(C)Cc1ccc(-c2ccccc2)cc1
Cc1ccc(S(=O)(=O)N(C)C[C@H]2Oc3c(NC(=O)Nc4cccc5ccccc45)cccc3C(=O)N([C@H](C)CO)C[C@@H]2C)cc1
Cl.NC1C(O)OC(CO)C(O)C1O (centres undefined)
C[C@H](CO)N1C[C@H](C)[C@@H](CN(C)C(=O)Nc2ccccc2)OCCCC[C@H](C)Oc2ccc(NC(=O)Nc3ccc(F)cc3)cc2C1=O
CCS(=O)(=O)Nc1ccc2c(c1)C(=O)N(C)[C@@H]1CC[C@H](CC(=O)NCc3ccccc3F)O[C@@H]1CO2

Source: the antibiotic and cytotoxicity screens of Wong et al. (2023)
